The results in this text go back to the supplement of paper PMC11417369.

Some of the results follow.

For this test, the system named is PfAP2-HC AP2 domain (GST-tagged). Briefly: gcPBM binding intensity (ln(normalized median fluorescence intensity)); higher = stronger DNA binding. A digest of the protocol:
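Alexa488 anti-GST antibody, scanned at 488 nm, detected GST-tagged P. falciparum DNA-binding domains that had been expressed in E. coli and incubated for 1 h on an Agilent 4 × 180k array. The array carried primer-extended double-stranded 36-bp intergenic genomic probes and negative controls. Binding intensity is the highest Masliner-normalised natural-log median intensity across replicate spots of either orientation of each probe.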
Consider “CACCCACCCAGACACACACACACACCCCCACCCATA [CACACA_site367]”, for which the “gcPBM binding intensity (ln)” value is 11.6.

With “AAGATGATAAAATATGTACACACAGTTTATACATTT [CACACA_site9341]”, the “gcPBM binding intensity (ln)” value is 9.83. For the sequence “TTATATATTAAGAAATGTACGAAAAAAAAAATTATA [XGTACX_site3893]”, the “gcPBM binding intensity (ln)” value worked out at 9.45. In the case of “AAAAAAAATTATATATGTACTTATTAATCCTTTTAT [XGTACX_site1387]” it was 9.62; in that of “TATAATAATAATAATAATAATAATAATAATAATAAT [CACACA_negctrl_site905]”, 9.48; in that of “CGCATAAAGACAAGAACACACATATAGATTGTAGTA [CACACA_site3693]”, 9.68.

As to “GAAATAAAAGATGGTTGTACACCGTTTTCTCATATA [XGTACX_site5368]”, the “gcPBM binding intensity (ln)” value worked out at 9.57. With “TACATATATGATAAAAGTACATATAAATATACATAA [XGTACX_site3804]”, the “gcPBM binding intensity (ln)” value stood at 9.73. Then “TATATGAATAAACATTGTACGTAAATATTAACTATC [XGTACX_site543]”, with 9.7; and “AAAGAGAACATAAGTACACACATGTTCTTTTAGTAA [CACACA_site2824]”, with 9.76; and “AAAAAAAAAAAAAAAACACACAAAAGCAAGAAAAAC [CACACA_site3198]”, with 10.3. As to “AAAGTAAAAACACATACATGCATATACACATATAAC [TGCATGCA_site341]”, the “gcPBM binding intensity (ln)” value was 9.87. As to “AATAGGAAAACCTATACACACTTTAAAAAAAATATA [CACACA_site4977]”, the “gcPBM binding intensity (ln)” value turned out to be 9.59. Then “ATAAATATGTATTGCTGTACATATATATAAATTATC [XGTACX_site8411]”, with 9.68; and “TCAATAAGATTATAAAGTACTTTTGAAGATATTATA [XGTACX_site7489]”, with 9.45; and “TTTCTTATTTTTTTCACACACTAAACATTTCAAATG [CACACA_site5259]”, with 9.9. As to “AAATATTTAAATATTATGTATGATTATATATATATA [CACACA_negctrl_site590]”, the “gcPBM binding intensity (ln)” value came to 9.5. Regarding “AAATAAATAAATAAATGTACACATATATATATATAT [XGTACX_site7787]”, the “gcPBM binding intensity (ln)” value is 9.68. Consider “TATATATTTAGTTAGTGTACAAGTTATTTAGTAGTT [XGTACX_site5133]”, for which the “gcPBM binding intensity (ln)” value worked out at 9.68. “TCTTTTAACAAATAATAAGCTAATTTATATTATTAT [GTGCAC_negctrl_site655]”: the “gcPBM binding intensity (ln)” value turned out to be 9.42. Then “AAAAAAATAATGTATATATAAATTTATTTACATATG [GTGCAC_negctrl_site107]”, with 9.53; and “TAAAAAATAAGATATACACACATATATTTATTTATA [CACACA_site7158]”, with 9.67; and “CAAATAAATTAAAGGTGTACTTTTATAGTTACGACA [XGTACX_site3926]”, with 9.56. For “CATATTTTCTTGTGTACACATTTATTTTATACTATA [CACACA_site6032]”, the “gcPBM binding intensity (ln)” value is 10.2. Then “TAAAAAATTTTCGCGTGTACGCAAGAAAAAAAAAAT [XGTACX_site3058]”, with 9.59; and “TTTTTGCCATATTACACACACACATGGAAACCCCCT [CACACA_site4994]”, with 10.4; and “ATATCCATAATAAAAACATGCAACAGAAAAAAAAAA [TGCATGCA_site497]”, with 9.82. Then “AAGAGAAATATATATTGTACAATAATTTTATTTGGT [XGTACX_site7642]”, with 9.57.

As for “TATATATTAATATTTACACACATGCGCACCCATAAA [CACACA_site2410]”, the “gcPBM binding intensity (ln)” value was found to be 9.84. Take “ATTTTTGTTATTACATGTACCCATAATTATTATTAA [XGTACX_site3558]”: the “gcPBM binding intensity (ln)” value came out at 9.81. As for “ACCGTGGGAGGACACACACACACACCCACATATATA [CACACA_site4339]”, the “gcPBM binding intensity (ln)” value amounted to 10.8. In the case of “TATTTATATTCCTTTACACACTCCATCTTATATCCA [CACACA_site3604]” it was 9.91; in that of “AACAATTATTTGTCGACACACGTATATGTTATTTAG [CACACA_site5046]”, 10.2.

For “ACAAAAAAATGAAAAGAAAAAGATATACCCCAATAT [CACACA_negctrl_site509]”, the “gcPBM binding intensity (ln)” value amounted to 9.84. For “TATTAATTAAAAAAATGTACATAATTATAAATTTTT [XGTACX_site7994]”, the “gcPBM binding intensity (ln)” value came to 9.45.

Regarding “TACGGTTGTTTATTTTGTACGTAAAAAATATATTAT [XGTACX_site8393]”, the “gcPBM binding intensity (ln)” value was determined as 9.7.

Take “TAATATACATATATATGTACATATATATATATATAT [XGTACX_site2684]”: the “gcPBM binding intensity (ln)” value is 9.72. Then “TTCCAAAAAATTATTACACACATATGAGCACATATA [CACACA_site4543]”, with 9.74; and “ATATTATTCTTATATTCACACAGTTTATATTTCCGT [CACACA_site5653]”, with 9.88. Then “AAATTACATACACGCGCACACACAAAAAAAAAAAAA [CACACA_site1335]”, with 10.8. In the case of “TTAAAAAATTATTGTAGTACATAGGAAATGAAAAAA [XGTACX_site155]”, the “gcPBM binding intensity (ln)” value was 9.63. Then “TAAATTAAATATTATAAACACACATATATATTATTT [CACACA_site8189]”, with 9.67. Then “ATATAAATAAATACAACACACATGTCATATCTAAAT [CACACA_site7533]”, with 9.94. In the case of “AAAAAAAAAAAATGAGCACACATAAATAAAAACAAA [CACACA_site8447]” it was 9.87.
